This is an account of results in paper PMC4911916.

Sequences of proteins named here, by UniProt entry; tags and fusion partners are left off.
UniProt Q9UPY3: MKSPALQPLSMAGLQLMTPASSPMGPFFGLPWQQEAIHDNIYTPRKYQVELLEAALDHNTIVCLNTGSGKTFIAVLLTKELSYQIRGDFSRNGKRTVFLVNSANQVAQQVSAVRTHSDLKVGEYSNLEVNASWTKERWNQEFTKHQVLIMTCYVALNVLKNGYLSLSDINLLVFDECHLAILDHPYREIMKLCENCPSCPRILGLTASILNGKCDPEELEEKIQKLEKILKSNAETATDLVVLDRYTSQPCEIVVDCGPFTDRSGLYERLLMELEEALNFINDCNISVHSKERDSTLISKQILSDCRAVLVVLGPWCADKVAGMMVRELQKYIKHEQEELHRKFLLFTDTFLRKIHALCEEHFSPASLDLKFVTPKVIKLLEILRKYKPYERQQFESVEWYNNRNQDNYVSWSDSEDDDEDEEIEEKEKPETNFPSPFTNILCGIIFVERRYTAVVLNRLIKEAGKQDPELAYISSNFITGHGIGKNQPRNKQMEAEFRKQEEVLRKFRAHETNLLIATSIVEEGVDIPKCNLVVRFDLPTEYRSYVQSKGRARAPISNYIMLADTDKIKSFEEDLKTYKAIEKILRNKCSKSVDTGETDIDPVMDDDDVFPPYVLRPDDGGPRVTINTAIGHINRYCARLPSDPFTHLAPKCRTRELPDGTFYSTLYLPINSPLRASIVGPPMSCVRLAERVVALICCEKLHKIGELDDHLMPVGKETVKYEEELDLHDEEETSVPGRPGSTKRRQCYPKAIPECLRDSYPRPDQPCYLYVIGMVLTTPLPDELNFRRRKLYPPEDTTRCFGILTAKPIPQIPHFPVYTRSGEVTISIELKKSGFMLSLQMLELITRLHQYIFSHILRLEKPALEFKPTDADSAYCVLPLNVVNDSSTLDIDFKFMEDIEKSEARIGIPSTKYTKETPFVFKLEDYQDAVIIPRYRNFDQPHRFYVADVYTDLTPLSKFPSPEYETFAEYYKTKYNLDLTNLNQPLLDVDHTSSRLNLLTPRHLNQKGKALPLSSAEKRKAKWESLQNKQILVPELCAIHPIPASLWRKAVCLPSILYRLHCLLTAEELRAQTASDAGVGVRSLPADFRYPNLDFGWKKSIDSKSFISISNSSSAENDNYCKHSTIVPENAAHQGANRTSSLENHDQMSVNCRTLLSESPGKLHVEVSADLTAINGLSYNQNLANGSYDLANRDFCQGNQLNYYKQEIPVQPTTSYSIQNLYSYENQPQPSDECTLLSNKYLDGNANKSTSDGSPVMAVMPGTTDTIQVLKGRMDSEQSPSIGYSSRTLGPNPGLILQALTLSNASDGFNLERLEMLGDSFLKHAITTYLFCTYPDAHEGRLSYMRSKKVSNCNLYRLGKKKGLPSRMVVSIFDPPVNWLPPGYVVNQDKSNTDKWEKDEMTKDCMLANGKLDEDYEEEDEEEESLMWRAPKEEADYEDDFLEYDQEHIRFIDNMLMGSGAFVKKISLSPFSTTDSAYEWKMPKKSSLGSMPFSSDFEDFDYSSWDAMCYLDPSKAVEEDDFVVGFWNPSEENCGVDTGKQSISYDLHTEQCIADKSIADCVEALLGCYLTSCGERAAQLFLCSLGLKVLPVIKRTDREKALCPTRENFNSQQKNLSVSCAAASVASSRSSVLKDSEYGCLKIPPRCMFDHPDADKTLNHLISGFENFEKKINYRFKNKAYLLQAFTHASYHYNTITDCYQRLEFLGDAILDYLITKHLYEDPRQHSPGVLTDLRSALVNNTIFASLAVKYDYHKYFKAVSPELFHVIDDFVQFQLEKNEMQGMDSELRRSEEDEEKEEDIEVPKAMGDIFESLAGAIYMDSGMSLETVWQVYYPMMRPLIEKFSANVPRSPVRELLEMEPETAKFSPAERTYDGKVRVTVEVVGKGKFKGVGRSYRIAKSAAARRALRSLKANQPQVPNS
UniProt P26599: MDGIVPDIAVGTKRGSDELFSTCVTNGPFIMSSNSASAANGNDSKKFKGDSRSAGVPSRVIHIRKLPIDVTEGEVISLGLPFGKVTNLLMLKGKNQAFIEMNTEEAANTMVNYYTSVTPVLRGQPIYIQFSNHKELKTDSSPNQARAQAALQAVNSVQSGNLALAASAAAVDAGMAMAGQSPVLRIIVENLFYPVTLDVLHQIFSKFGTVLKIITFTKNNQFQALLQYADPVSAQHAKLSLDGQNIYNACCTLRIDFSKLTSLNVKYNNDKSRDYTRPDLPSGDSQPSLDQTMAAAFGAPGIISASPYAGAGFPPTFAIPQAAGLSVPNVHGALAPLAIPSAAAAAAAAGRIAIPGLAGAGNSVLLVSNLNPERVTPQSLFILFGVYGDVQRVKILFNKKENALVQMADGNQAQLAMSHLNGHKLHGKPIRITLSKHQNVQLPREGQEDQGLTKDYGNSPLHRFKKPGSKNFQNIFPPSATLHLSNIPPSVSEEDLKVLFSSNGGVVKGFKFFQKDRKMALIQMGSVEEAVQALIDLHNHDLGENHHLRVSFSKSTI
UniProt Q14974: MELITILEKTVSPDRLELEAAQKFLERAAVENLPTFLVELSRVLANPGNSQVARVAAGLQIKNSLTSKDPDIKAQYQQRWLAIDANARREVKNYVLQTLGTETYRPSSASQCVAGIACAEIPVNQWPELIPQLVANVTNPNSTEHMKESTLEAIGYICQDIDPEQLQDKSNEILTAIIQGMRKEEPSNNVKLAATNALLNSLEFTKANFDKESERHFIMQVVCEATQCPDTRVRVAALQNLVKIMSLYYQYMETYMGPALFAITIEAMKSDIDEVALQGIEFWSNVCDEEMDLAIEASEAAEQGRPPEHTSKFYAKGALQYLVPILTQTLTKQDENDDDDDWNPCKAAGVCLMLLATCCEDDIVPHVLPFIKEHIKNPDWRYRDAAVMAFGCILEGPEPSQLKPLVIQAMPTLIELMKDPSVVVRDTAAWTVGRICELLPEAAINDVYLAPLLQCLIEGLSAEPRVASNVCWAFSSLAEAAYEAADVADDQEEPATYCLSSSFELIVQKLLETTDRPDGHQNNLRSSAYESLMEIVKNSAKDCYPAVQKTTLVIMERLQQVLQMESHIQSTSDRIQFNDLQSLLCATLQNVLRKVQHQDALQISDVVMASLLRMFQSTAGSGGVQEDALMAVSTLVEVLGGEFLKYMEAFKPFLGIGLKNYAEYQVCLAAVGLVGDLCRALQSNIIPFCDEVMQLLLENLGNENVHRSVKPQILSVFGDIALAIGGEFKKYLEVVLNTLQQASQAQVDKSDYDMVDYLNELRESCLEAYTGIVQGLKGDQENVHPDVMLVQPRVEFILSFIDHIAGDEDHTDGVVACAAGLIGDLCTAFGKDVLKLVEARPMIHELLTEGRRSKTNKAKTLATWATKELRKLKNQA
UniProt Q8NDV7: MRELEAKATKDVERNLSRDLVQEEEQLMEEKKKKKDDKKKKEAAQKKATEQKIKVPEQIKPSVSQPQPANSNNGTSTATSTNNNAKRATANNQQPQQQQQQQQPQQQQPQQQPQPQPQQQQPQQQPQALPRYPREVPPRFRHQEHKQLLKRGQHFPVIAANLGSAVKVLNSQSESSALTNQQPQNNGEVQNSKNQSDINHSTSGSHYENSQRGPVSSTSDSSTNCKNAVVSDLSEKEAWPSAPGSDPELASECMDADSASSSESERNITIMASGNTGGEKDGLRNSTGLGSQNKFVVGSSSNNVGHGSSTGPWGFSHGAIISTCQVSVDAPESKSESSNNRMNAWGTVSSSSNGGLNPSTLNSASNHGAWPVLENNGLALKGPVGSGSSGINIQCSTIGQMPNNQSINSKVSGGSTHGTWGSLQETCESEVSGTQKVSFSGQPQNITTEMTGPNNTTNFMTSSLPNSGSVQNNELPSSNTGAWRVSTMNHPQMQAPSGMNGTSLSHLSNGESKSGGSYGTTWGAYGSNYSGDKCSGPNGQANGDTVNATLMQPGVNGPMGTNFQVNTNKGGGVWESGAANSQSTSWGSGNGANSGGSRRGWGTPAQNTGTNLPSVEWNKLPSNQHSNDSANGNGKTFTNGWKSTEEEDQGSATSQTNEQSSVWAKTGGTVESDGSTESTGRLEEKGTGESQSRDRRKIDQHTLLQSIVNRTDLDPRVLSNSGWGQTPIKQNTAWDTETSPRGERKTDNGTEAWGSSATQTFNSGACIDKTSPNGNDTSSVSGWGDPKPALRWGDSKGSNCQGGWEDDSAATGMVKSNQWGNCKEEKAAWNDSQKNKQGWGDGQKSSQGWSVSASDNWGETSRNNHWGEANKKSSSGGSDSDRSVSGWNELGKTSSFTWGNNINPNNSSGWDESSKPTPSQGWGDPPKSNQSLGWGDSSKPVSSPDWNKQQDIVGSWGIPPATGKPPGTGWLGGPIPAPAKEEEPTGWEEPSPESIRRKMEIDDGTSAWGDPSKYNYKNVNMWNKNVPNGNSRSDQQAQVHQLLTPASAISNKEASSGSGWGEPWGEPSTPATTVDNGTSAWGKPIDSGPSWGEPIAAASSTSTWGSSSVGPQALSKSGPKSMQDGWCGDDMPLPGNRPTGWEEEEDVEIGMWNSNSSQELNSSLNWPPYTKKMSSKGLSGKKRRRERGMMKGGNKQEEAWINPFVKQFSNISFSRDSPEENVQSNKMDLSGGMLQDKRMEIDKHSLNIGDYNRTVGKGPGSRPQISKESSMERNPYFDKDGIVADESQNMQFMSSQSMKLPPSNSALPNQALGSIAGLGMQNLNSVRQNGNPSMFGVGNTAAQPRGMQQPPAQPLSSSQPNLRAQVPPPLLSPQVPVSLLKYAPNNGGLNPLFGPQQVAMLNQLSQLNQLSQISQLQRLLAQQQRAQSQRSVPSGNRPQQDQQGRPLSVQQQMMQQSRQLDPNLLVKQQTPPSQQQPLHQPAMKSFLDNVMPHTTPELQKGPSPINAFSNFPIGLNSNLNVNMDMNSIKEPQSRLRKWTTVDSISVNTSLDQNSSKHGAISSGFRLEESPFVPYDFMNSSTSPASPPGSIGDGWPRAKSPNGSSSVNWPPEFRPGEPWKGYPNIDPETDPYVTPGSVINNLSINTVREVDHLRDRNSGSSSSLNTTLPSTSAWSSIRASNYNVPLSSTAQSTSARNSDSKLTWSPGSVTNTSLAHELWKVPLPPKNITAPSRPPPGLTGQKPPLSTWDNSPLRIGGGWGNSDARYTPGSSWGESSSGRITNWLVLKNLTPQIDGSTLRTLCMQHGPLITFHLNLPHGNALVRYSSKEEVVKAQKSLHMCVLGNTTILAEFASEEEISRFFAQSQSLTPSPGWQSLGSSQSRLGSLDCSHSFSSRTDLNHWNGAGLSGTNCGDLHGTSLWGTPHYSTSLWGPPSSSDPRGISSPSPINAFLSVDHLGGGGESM

These are yes or no findings as the source states them, for the method shown. In cells and extracts the contact can be indirect. Some entries that bind do so weakly or less than the wild type.

The target in one assay is Flag-HA-tagged AGO2 (human) (UniProt Q9UKV8). Briefly: co-IP; anti-Flag resin IP of Flag-AGO2 from nuclear extract of the stable line versus Flag IP from T47D cells, Western blot of partners; 6 washes in IP300 buffer. (In western blotting, separated proteins are transferred to a membrane and probed.)
For the substance AGO3 (from UniProt Q9H9G7 1-860), the binding result was “binds”.

The target of the next assay is endogenous Argonaute 2 (AGO2) (human (endogenous in T47D)) (UniProt Q9UKV8). Put plainly: co-IP; anti-AGO2 antibody IP from T47D nuclear extract versus IgG control, Western blot of partners; 300 µg protein, 4°C, 6 washes in IP300 buffer (300 mM NaCl, 0.05% NP-40).
Regarding Dicer (from UniProt Q9UPY3 1-1922), the binding result is given as “binds”.

As for PTBP1 (from UniProt P26599 1-557), the binding result was “no binding”.

Take AGO3 (from UniProt Q9H9G7 1-860): the binding entry was “binds”.

On to KPNB1 (from UniProt Q14974 1-876), for which the binding entry was “no binding”.

For the substance “TNRC6A (GW182) (from UniProt Q8NDV7 1-1962)”, the binding entry is given as “binds”.
